Experimental data: a collection of fitness landscapes (doi:10.1126/science.1257360)
This is one part of the list.

B1: PhoQ; a variant is named by its letters at X, in order, P23837 (parent)
chain: MKKLLRLFFPLSLRVRFLLATAAVVLVLSLAYGMVALIGYSVSFDKTTFRLLRGESNLFYTLAKWENNKLHVELPENIDKQSPTMTLIYDENGQLLWAQRDVPWLMKMIQPDWLKSNGFHEIEADVNDTSLLLSGDHSIQQQLQEVREDDDDAEMTHSVAVNVYPATSRMPKLTIVVVDTIPVELKSSYMVWSWFIYVLSANLLLVIPLLWVAAWWSLRPIEALAKEVRELEEHNRELLNPATTRELTSLVRNLNRLLKSERERYDKYRTTLTDLTHSLKTPLXXLQXXLRSLRSEKMSVSDAEPVMLEQISRISQQIGYYLHRASMRGGTLLSRELHPVAPLLDNLTSALNKVYQRKGVNISLDISPEISFVGEQNDFVEVMGNVLDNACKYCLEFVEISARQTDEHLYIVVEDDGPGIPLSKREVIFDRGQRVDTLRPGQGVGLAVAREITEQYEGKIVAGESMLGGARMEVIFGRQHSAPKDE

Variants of: B1
Experiment: enrichment ratio after two sorts for PhoP signalling (ratio (wild type AVST 3.29)); higher = more functional
Details: with PhoP (E. coli)

Variant	enrichment ratio
TWFE	≤ 0.25
GGQQ	≤ 0.25
LIIK	≤ 0.25
MMCH	≤ 0.25
DSQL	≤ 0.25
MHRQ	≤ 0.25
FWGD	≤ 0.25
YIII	≤ 0.25
VWFV	≤ 0.25
IFHE	≤ 0.25
DLMG	≤ 0.25
LSFM	7.16
HYGD	≤ 0.25
THMD	≤ 0.25
KRAL	≤ 0.25
FVCA	≤ 0.25
FPMV	≤ 0.25
HQLD	≤ 0.25
HFNP	≤ 0.25
PAVM	≤ 0.25
YVMY	≤ 0.25
TSCK	3.25
HRVP	≤ 0.25
TLQK	≤ 0.25
RLLI	≤ 0.25

Variant	enrichment ratio
LFIF	≤ 0.25
LQQV	≤ 0.25
LPKN	≤ 0.25
ELAS	≤ 0.25
EHAF	≤ 0.25
WALH	≤ 0.25
TCCI	7.17
PIMT	≤ 0.25
IQGH	≤ 0.25
DMSQ	≤ 0.25
RIME	≤ 0.25
LGVI	≤ 0.25
AFHI	≤ 0.25
NMDF	≤ 0.25
TWPS	≤ 0.25
YYTN	≤ 0.25
HLNR	≤ 0.25
WWAW	≤ 0.25
VKDF	≤ 0.25
FDNW	1.84
EDIW	≤ 0.25
GYRQ	≤ 0.25
GLRW	≤ 0.25
TKQM	7.75
HMMG	≤ 0.25

Variant	enrichment ratio
QRDI	≤ 0.25
TFPM	≤ 0.25
RDWG	≤ 0.25
IWCV	≤ 0.25
WGHG	≤ 0.25
MNDY	≤ 0.25
VLKL	≤ 0.25
TANT	2.62
MIFE	≤ 0.25
PHLQ	≤ 0.25
FKRW	≤ 0.25
EKGP	≤ 0.25
NFMI	≤ 0.25
THKN	≤ 0.25
GPLN	≤ 0.25
FKFT	≤ 0.25
KHQR	≤ 0.25
DDHQ	≤ 0.25
AQCV	10.1
FLMK	≤ 0.25
RILQ	≤ 0.25
LWAQ	≤ 0.25
DPRQ	≤ 0.25
PVSD	≤ 0.25
YEEY	≤ 0.25

Variant	enrichment ratio
AIYI	0.284
KEAP	≤ 0.25
HSKT	≤ 0.25
KIVF	≤ 0.25
NSGR	≤ 0.25
MVYG	≤ 0.25
TFWP	≤ 0.25
GKMQ	≤ 0.25
GPYI	≤ 0.25
RRNR	≤ 0.25
GTNF	≤ 0.25
LYCS	≤ 0.25
MPKW	≤ 0.25
SCSK	14.3
PTCS	≤ 0.25
WMLM	≤ 0.25
AQEG	≤ 0.25
FLWA	≤ 0.25
PICS	≤ 0.25
NPAD	≤ 0.25
GRTE	≤ 0.25
SCDG	≤ 0.25
SLLR	1.56
IGCE	≤ 0.25
EFKW	≤ 0.25

Variant	enrichment ratio
ESTS	≤ 0.25
EPHH	≤ 0.25
VRDR	≤ 0.25
ECTA	≤ 0.25
NTQW	≤ 0.25
ADKY	≤ 0.25
DQMC	≤ 0.25
KAYL	≤ 0.25
LSIK	≤ 0.25
MGNQ	≤ 0.25
TMWG	≤ 0.25
YIHA	≤ 0.25
FPME	≤ 0.25
TWVL	≤ 0.25
IFFV	≤ 0.25
SLCV	7.13
DQHD	≤ 0.25
HQGG	≤ 0.25
FQSE	≤ 0.25
KVTM	≤ 0.25
PTKN	≤ 0.25
WVLQ	≤ 0.25
AYGA	≤ 0.25
EVGT	≤ 0.25
DSAP	≤ 0.25

Variant	enrichment ratio
EFEP	≤ 0.25
NENR	≤ 0.25
SGLA	8.41
AGVW	≤ 0.25
YTKP	≤ 0.25
TWCT	≤ 0.25
NTVF	≤ 0.25
SKSA	≤ 0.25
LQHH	≤ 0.25
EMHV	≤ 0.25
LSLA	0.36
QGRE	≤ 0.25
FDQA	≤ 0.25
YKEG	≤ 0.25
QEMI	65.2
KAIK	≤ 0.25
RLLV	≤ 0.25
KTVT	≤ 0.25
FLAG	≤ 0.25
LCRK	≤ 0.25
IANE	≤ 0.25
FRYL	≤ 0.25
QVNW	≤ 0.25
NWPF	≤ 0.25
QRNI	≤ 0.25

Variant	enrichment ratio
QGYC	13.7
GFMD	≤ 0.25
FTHW	≤ 0.25
MVNW	≤ 0.25
LTFS	≤ 0.25
EHPH	≤ 0.25
VLQQ	≤ 0.25
DDLD	≤ 0.25
LTHC	≤ 0.25
PNTH	≤ 0.25
FWHF	≤ 0.25
WGGR	≤ 0.25
NGDS	≤ 0.25
INVQ	≤ 0.25
TGMR	1.12
VDCL	≤ 0.25
KKMA	≤ 0.25
PMHW	≤ 0.25
ITYE	≤ 0.25
RFYR	≤ 0.25
VISI	2.09
FQEP	≤ 0.25
VIMT	≤ 0.25
QMGF	6.84
QEPY	≤ 0.25

Variant	enrichment ratio
MMYP	≤ 0.25
WCPA	≤ 0.25
ECKT	≤ 0.25
SLYW	≤ 0.25
FHQI	≤ 0.25
RQWI	≤ 0.25
HLTN	≤ 0.25
DTEH	≤ 0.25
DPNQ	≤ 0.25
EAMI	≤ 0.25
HYPT	≤ 0.25
MPRW	≤ 0.25
RYSR	≤ 0.25
AGTN	≤ 0.25
GTDG	≤ 0.25
KPNT	≤ 0.25
VVIF	≤ 0.25
DSDQ	≤ 0.25
DQQI	≤ 0.25
PATM	≤ 0.25
